Test results: a collection of fitness landscapes (doi:10.1126/science.1257360)
This is one part of the list.

B1: PhoQ; a variant is named by its letters at X, in order, P23837 (parent)
chain: MKKLLRLFFPLSLRVRFLLATAAVVLVLSLAYGMVALIGYSVSFDKTTFRLLRGESNLFYTLAKWENNKLHVELPENIDKQSPTMTLIYDENGQLLWAQRDVPWLMKMIQPDWLKSNGFHEIEADVNDTSLLLSGDHSIQQQLQEVREDDDDAEMTHSVAVNVYPATSRMPKLTIVVVDTIPVELKSSYMVWSWFIYVLSANLLLVIPLLWVAAWWSLRPIEALAKEVRELEEHNRELLNPATTRELTSLVRNLNRLLKSERERYDKYRTTLTDLTHSLKTPLXXLQXXLRSLRSEKMSVSDAEPVMLEQISRISQQIGYYLHRASMRGGTLLSRELHPVAPLLDNLTSALNKVYQRKGVNISLDISPEISFVGEQNDFVEVMGNVLDNACKYCLEFVEISARQTDEHLYIVVEDDGPGIPLSKREVIFDRGQRVDTLRPGQGVGLAVAREITEQYEGKIVAGESMLGGARMEVIFGRQHSAPKDE

Variants of: B1
Assay: enrichment ratio after two sorts for PhoP signalling (ratio (wild type AVST 3.29)); higher = more functional
Conditions: with PhoP (E. coli)

Variant	enrichment ratio
SIRR	≤ 0.25
PMFV	≤ 0.25
MHLP	≤ 0.25
TWLD	≤ 0.25
DMYR	≤ 0.25
TIMS	7.76
GYMY	≤ 0.25
VCPI	≤ 0.25
LSWK	≤ 0.25
RVGE	≤ 0.25
TNSP	≤ 0.25
DWTN	≤ 0.25
CFPF	≤ 0.25
KCSY	≤ 0.25
SRIN	≤ 0.25
HQRA	≤ 0.25
SSLP	≤ 0.25
GFTV	≤ 0.25
RNNC	≤ 0.25
VKTL	≤ 0.25
TKKN	≤ 0.25

Variant	enrichment ratio
HMPP	≤ 0.25
GELR	≤ 0.25
TQIA	≤ 0.25
YTWP	≤ 0.25
EYVD	≤ 0.25
VIAL	0.917
MMIV	≤ 0.25
GCYY	≤ 0.25
FWLF	≤ 0.25
TPYL	≤ 0.25
SKPI	≤ 0.25
LEFQ	6.2
YPTI	≤ 0.25
ASES	≤ 0.25
WNCC	≤ 0.25
MNAG	3.99
MTLT	≤ 0.25
IKLD	≤ 0.25
TMIW	≤ 0.25
YAGT	≤ 0.25
YGGF	≤ 0.25

Variant	enrichment ratio
AVMT	7.67
DHGV	≤ 0.25
DNTR	≤ 0.25
LGTQ	≤ 0.25
YADR	≤ 0.25
GIAR	4.4
LYHR	≤ 0.25
YQNC	≤ 0.25
KIKY	≤ 0.25
NYSR	≤ 0.25
DDLI	≤ 0.25
NQSI	≤ 0.25
DSMM	≤ 0.25
CVQT	≤ 0.25
LNCI	≤ 0.25
KVNR	≤ 0.25
IPAS	≤ 0.25
QYTA	≤ 0.25
TRFR	≤ 0.25
AMFH	≤ 0.25
AVGC	≤ 0.25

Variant	enrichment ratio
QYAI	≤ 0.25
IVVR	≤ 0.25
FGDY	≤ 0.25
TMTV	10.6
KHKF	≤ 0.25
TFCC	3.86
WSAQ	≤ 0.25
VKRK	≤ 0.25
AIFN	≤ 0.25
IVTF	≤ 0.25
VFLW	≤ 0.25
VFQR	≤ 0.25
FEWL	≤ 0.25
RHMP	≤ 0.25
HPWI	≤ 0.25
IWIW	≤ 0.25
QHNM	≤ 0.25
GEGS	≤ 0.25
VVLS	≤ 0.25
NGHM	≤ 0.25
PLSF	≤ 0.25
